The other results are listed elsewhere or left out. At the low end of the ranking the order means little. The protein was read in a cell extract, so binding may be indirect.

The assay concerns the target T1, HNF4alpha8 (COS-7 nuclear extract) (UniProt P41235-5).
T1 sequence: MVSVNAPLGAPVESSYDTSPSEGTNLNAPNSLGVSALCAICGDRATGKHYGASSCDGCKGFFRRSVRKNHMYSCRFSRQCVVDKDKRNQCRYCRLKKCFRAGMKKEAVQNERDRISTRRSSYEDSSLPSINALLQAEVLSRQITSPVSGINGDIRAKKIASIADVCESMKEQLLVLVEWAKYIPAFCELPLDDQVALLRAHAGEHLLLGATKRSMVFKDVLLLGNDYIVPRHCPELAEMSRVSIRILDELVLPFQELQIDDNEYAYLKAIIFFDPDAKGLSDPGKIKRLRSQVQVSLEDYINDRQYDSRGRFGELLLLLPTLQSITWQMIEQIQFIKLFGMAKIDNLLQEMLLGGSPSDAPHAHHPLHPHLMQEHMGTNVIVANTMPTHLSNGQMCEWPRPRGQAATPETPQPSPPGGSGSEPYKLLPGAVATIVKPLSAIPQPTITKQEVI
The assay is described as follows: protein-binding microarray. To be noted: COS-7 nuclear extract on double-stranded Agilent 4x180k PBM; binding buffer, salt, pH and temperature not given; high values mean tight binding; double strand, one strand shown; sequences stand for … in …GCCTAGGGAGATTAGAGTATCGGTCGA
In the case of CCAGAAAAGGCCTAAAAGGTTATCTTCCAG, the binding signal (log2 normalized intensity) is -1.07.
For the sequence AAACAAGTAGCAGTTCAAAAGTTCAAAGAT, the binding signal (log2 normalized intensity) worked out at 2.19.
As to ATTATTAACTGTAGGCGTATGCTGTACAGA, the binding signal (log2 normalized intensity) was 0.758.
As for ATAGGGAAAGATAAAAAAGTTCCAGAGACC, the binding signal (log2 normalized intensity) was -1.42.
Then GATGGGCCAGGCAGGACAGTTTTGTGTGTT, with 1.14.
Then GAAGATGCCAGCCCCGAGATAACCCCTCTC, with 4.58.
In the case of CAGGAGGATTCCTGATGCGTTCAAGGAACA it was -1.33; in that of AGGGCATGGGCAGCTTTGAAGACTCTCTTT, -1.38.
On to ATCTTCCTGAGGAGAGCAAAGATCACCTGG, for which the binding signal (log2 normalized intensity) was found to be 1.97.
On to GAGGGGGACACAGTTCAGGCCATCACACTC, for which the binding signal (log2 normalized intensity) was -1.25.
For the sequence GATAGGCACAATCAGCAAACACAGATAGCA, the binding signal (log2 normalized intensity) was -1.45.
As to AATGGTGTAGAGGCCAGAGGTCGTGTCTCC, the binding signal (log2 normalized intensity) is 1.96.
TTATCCTTGGGACATTCTCACATTAAAAGA: the binding signal (log2 normalized intensity) stood at 0.182.
Regarding GCAGAGATTCCTGCTGAGTTATCTCTTGAC, the binding signal (log2 normalized intensity) was -1.19.
Consider GGAACATCAGACACAGAGATAAGGAGGTAA, for which the binding signal (log2 normalized intensity) is -1.36.
In the case of TTCCCACCCCATTTCACAGCAACCTCAGAC, the binding signal (log2 normalized intensity) was 1.92.
In the case of CGTTCCTGACAGACTGCCATTCCAGAAGTA, the binding signal (log2 normalized intensity) is -1.32.
As for GCCATCTGCTGCCTCAGTTTCCCCGTCTCT, the binding signal (log2 normalized intensity) worked out at 1.66.
Turning to GGAAGGGAGGTGAGTGCTAGCATTGCTCAG, the binding signal (log2 normalized intensity) was -1.33.
In the case of TGGCCTCTGCAGACATGGACTCTGGGATCT it was 3.74.
In the case of TTGTACTGCTTCCAAAACATTGTAGAATTA it was 0.558; in that of GTGTCATTGTTATTTACGGTGGGCACCTCA, 0.235; in that of CCGACTCCTGGGTGTGAGATAAGGCCGCTG, -1.23.
Regarding GGTTCTCTCTTCTTCCCCTCCTTCAGGTCA, the binding signal (log2 normalized intensity) worked out at 2.67.
Then AATGACCCTTGCTTGACCCATTATGGCCAC, with 2.1; and TCCGGGTATGTTCTTAAGATAAGGACTGTT, with 1.04; and TCCCAGGATAATGGAGAAGATAAGCAGATC, with -1.26.
Take CAAGGTCCCATGCACTGGCCTGGATTTAAA: the binding signal (log2 normalized intensity) is -1.17.
Regarding CCGGTTTGTTCCATGCCACAGAATCGCCCC, the binding signal (log2 normalized intensity) turned out to be 3.12.
In the case of GGAACCAAGAGCAGATTTGTTTGCTCTTTA it was 0.915; in that of AGCTGACCCCAAAACCCCCAAAGGTGAGTA, 4.29.
For the sequence GACCAGCTTTTGGAAGGACTTCGAATGGTA, the binding signal (log2 normalized intensity) is 0.961.
For CTTCACTGACGAAACTCACATACTGTGGAC, the binding signal (log2 normalized intensity) was 1.18.
As to GATGATTGTCCCTTTTCTATCCAGATGATC, the binding signal (log2 normalized intensity) turned out to be 1.62.
In the case of ACCTCTTATCAAGCGTGCACCCCAGGTACG it was 1.3; in that of TAGGAATCTTCAAGGCCTACCTTGGGTTCT, 0.464.
Turning to CTTGGACTCTGAAGGAATGTAAACTCCAAG, the binding signal (log2 normalized intensity) came to 0.585.
In the case of ACCTCCCTGGGCATGTCTGCTCCCTGAGTT, the binding signal (log2 normalized intensity) was determined as 1.06.
Regarding CCCTCTGATATTGGGTGAGTGTTAGAGCAC, the binding signal (log2 normalized intensity) was 0.849.
In the case of GTCCTATGACCCTGCCAAATCCCCCTCTGC, the binding signal (log2 normalized intensity) is 4.79.
Then ATAGCATGCCACGATGATTAGCTGACTTTA, with -1.31.
In the case of TAGGATCTAGCAAATTTGGGAGGGAAGAGG it was -1.25; in that of GGACTTTGTTGTTTGCCTCTGAAAACTTTT, 2.49; in that of GTTGAAGTTCCAGAAGACTACAAATTCCTC, -1.39.
Then AGTGAACTGTCTGCTATGTGTATATGAGTG, with 1.34.
Turning to GGTTCCTCAGAGGACCTGACATTCTCCACT, the binding signal (log2 normalized intensity) was -1.28.
Turning to AGTCTGATTCTAGGGCCCATGCCCTTAGCC, the binding signal (log2 normalized intensity) turned out to be 1.31.
Take CCTAGATGAGATAAGGTTCTGATAAAGTAT: the binding signal (log2 normalized intensity) came to 0.675.
Regarding ACAACATGAGTAAACGAGCTATTTAGATAA, the binding signal (log2 normalized intensity) is -1.29.
As to AAATACATAGCTGGGATGAGATACCCATTC, the binding signal (log2 normalized intensity) is -1.26.
In the case of CATGTGCATTTCACAATAGGGTTCAAACTC it was 2.85; in that of TGAGGGGACAAAGTTCGTGGAAAGTGGAAG, 3.11; in that of AAACAGAGGCTGAAATGGTTACAAAGGTCA, 5.42.
Then TTTACAGAACTCTTCGAAGACACAAAGCTT, with -1.28; and GCTTGGGGTGGGGTTGGAGTCCAGAGTTCA, with 4.45; and AGTTTAAAGGCGTTTGCTCCCATCCCCCCA, with 4.91.
Take TGTGGACTGCTCCAGTGGACATTGGCCCTT: the binding signal (log2 normalized intensity) was found to be 7.
In the case of TTTGAAAAGCTGTAGTGAACAAGTCTCCTT, the binding signal (log2 normalized intensity) is -0.611.
As to CACCCAAACCATCCCAGGCATCCAGGCCAG, the binding signal (log2 normalized intensity) is -0.966.
Consider AGATTGCTAGCTGAGAGACTTTATCCGTAT, for which the binding signal (log2 normalized intensity) was -1.19.
As for ATTAGAGAACATGTACTTTGTACTGCTTAT, the binding signal (log2 normalized intensity) is 4.99.
For ACTGCACTGTATCTTATCAGAAACACACCC, the binding signal (log2 normalized intensity) is -0.00301.
Then GGCCTCTCCACTTGGGTATCAGATAGTCCA, with 1.51; and AAAGCGGCTCAGGAAACAGCGCTATCGGGG, with -1.38.
In the case of GACTATTTTATTTTCCCCCTTTGAAGTCTG, the binding signal (log2 normalized intensity) was determined as 3.2.
Regarding GGGTGTAAGAGTGAACTCTGACCATGCCTA, the binding signal (log2 normalized intensity) came to 3.69.
As for ATAGGTTCTACTCTCCCCAGTTCAAAGGTT, the binding signal (log2 normalized intensity) was found to be 6.08.
Turning to AGATCCGAAGTCTAGGACGTTATCAGCAGG, the binding signal (log2 normalized intensity) was -1.01.
For CAGAAGCAATCACAAGGAATGCCCTTATCT, the binding signal (log2 normalized intensity) amounted to 2.11.
Consider CTTTGACACAGGCGACCTTCGCTCGGCTCG, for which the binding signal (log2 normalized intensity) amounted to 4.27.
Turning to AAAAGAGTTGCTCAAACCAACATTATTAGC, the binding signal (log2 normalized intensity) is -1.34.
CTGATTTAGCTATTTGACCTTCGGCCTCAA: the binding signal (log2 normalized intensity) is 8.73.
As to TGGAACCTGTCTGACAGGATGAATTTATTG, the binding signal (log2 normalized intensity) was -1.24.

Source of the values: article PMC10726135.
